Data taken from PubChem BioAssay AID1347055 (National Center for Advancing Translational Sciences (NCATS), 2019).
Screen size: about 54,000 compounds; about 120 (0.22%) were called active. The shares of active, inactive and inconclusive entries below differ from those in the screen. Calls come from the whole dose curve; as a rule, active = well fitted inhibition curve with a large enough effect; inconclusive = small, poorly fitted or top-dose-only effect, or effect the other way; inactive = flat fitted curve, though single readings scatter. No potency is given beside an inconclusive call; the fits are too rough.

molecular target: Fumarate hydratase, mitochondrial (Homo sapiens) (UniProt P07954); test: Identification of activators of human fumarate hydratase by quantitative high-throughput screening; details: FH coupled MDH/diaphorase resazurin fluorescence, 15 min; series mostly up to 79.9 µM; note: the screen sought activators but most active calls are inhibition curves; nearly all actives have a fitted effect of over 45% in size
Chain of UniProt P07954 (P07954 whole entry, looked up): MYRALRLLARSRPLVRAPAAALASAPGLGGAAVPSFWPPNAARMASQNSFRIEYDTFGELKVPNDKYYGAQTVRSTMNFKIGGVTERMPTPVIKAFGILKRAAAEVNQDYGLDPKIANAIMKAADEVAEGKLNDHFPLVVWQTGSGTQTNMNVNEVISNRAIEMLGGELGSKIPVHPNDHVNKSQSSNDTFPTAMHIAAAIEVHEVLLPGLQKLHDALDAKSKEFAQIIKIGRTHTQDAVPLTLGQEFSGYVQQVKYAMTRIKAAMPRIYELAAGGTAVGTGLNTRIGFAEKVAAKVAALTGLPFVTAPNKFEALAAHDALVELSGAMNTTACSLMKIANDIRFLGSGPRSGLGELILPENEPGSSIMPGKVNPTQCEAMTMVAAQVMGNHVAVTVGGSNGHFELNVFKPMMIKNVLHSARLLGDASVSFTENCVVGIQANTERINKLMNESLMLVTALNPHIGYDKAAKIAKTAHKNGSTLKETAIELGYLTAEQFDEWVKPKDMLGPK
Potency is the fitted concentration of half-maximal effect; tags give direction and shape of the fitted curve.

| SMILES | Potency |
| --- | --- |
| CCc1nnc(SCC(=O)Nc2cc(Cl)c(OC)cc2OC)c2cc3oc(C)cc3n12 | inactive |
| COc1ccc(OC)c(-c2noc(CSc3nnc(Cc4ccccc4)n3-c3cccc(C)c3)n2)c1 | inconclusive [inhibitor, single point] |
| COc1ccc(C(=O)N2CCc3cc(OC)c(OC)cc3C2COc2ccccc2OC)cc1 (stereo not drawn) | inconclusive [inhibitor, partial curve, poor fit] |
| COc1ccc(C)c2sc(N(Cc3cccnc3)C(=O)CCc3ccccc3)nc12 | inconclusive [inhibitor, single point] |
| O=C1c2ccccc2-c2nc3nnnn3nc21 (tested in a mixture with another compound) | active: 0.891 µM |
| c1cc(Nc2cc(C3CC3)[nH]n2)nc(Nc2ccc3nc[nH]c3c2)n1 | inactive |
| CCOC(=O)c1cccc(Nc2ccc3cc(S(=O)(=O)N4CCCCC4)ccc3n2)c1 | inconclusive [inhibitor, partial curve, poor fit] |
| COc1cc2ncnc(Nc3ccc(O)cc3)c2cc1OC | inactive |
| Cc1cc(N2CCN(C)CC2)nc2ccc(NC(=O)c3ccc(C(C)(C)C)cc3)cc12 | inconclusive [inhibitor, single point] |
| CC(=O)N1CCN(CCOc2ccc(C3CCN(C4=Nn5c(nnc5C(F)(F)F)CC4)CC3)cc2)CC1 | inactive |
| O=C(O)c1ccccc1C(=O)Nc1ccc(-c2ccccc2)cc1 | inactive |
| CCn1cc2nc(SCc3cccc(C(F)(F)F)c3)n(Cc3ccc(Cl)cc3)c(=O)c2n1 | inconclusive [inhibitor, partial curve] |
| COc1ccc(C)cc1NC(=O)N1CCC(CN2CCOCC2)CC1 | inconclusive [activator, single point] |
| CCC(=O)O[C@H]1C(C)(C)[C@H]([C@@H](O)C(=O)OC)[C@]2(C)C(=O)[C@@]1(O)[C@H]1O[C@]13C1CC(=O)O[C@@H](c4ccoc4)[C@]1(C)CCC32 (stereo partly drawn) | inactive |
| Cc1cn(C2OC(CO)C(O)C2F)c(=O)[nH]c1=O (stereo not drawn) | inactive |
| Cc1ccc(S(=O)(=O)n2nc(-c3ccc(Cl)cc3)nc2NCc2ccccc2)cc1 | inconclusive [inhibitor, partial curve, poor fit] |
| CCOc1ccc(NC2SC(=O)N(Cc3ccccc3)C2=O)cc1 (stereo not drawn) | active: 39.8 µM [activator] |
| O=S(c1cc(Cl)cc(Cl)c1O)c1cc(Cl)cc(Cl)c1O | inactive |
| CCCCN(CC)C(=O)CSc1nc2n[nH]c(C)c2c(=N)n1-c1cccc(C)c1 | inconclusive [inhibitor, single point] |
| CCOc1ccc(C2C(C(=O)Nc3ccccc3)=C(C)Nc3nc(SCc4cccc(OC)c4)nn32)cc1 (stereo not drawn) | inactive |
| CC1CCN(CC2CCN(C(=O)NCc3ccc(F)cc3)CC2)CC1 | inconclusive [inhibitor, single point] |
| Cc1nc(N)sc1-c1ccnc(Nc2ccc(N3CCOCC3)cc2)n1 | inconclusive [activator, single point] |

| SMILES | Potency |
| --- | --- |
| CCOc1ccccc1NC(=O)c1sc2nc3c(cc2c1N)CN(Cc1ccccc1)CC3 | inconclusive [inhibitor, partial curve, poor fit] |
| COc1cccc(Cc2nc3ccccc3nc2SCC(=O)N2CCCCC2C)c1 (stereo not drawn) | inactive |
| O=C(NCCc1ccc(Cl)cc1)c1ccc2c(c1)N(Cc1ccccc1)CCS2 | inconclusive [inhibitor, single point] |
| COc1ccc(NC(=O)CN(C)S(=O)(=O)c2ccc3[nH]c4c(c3c2)CCCC4)cc1OC | inactive |
| CC(C)Oc1ccc(CNC(=O)c2ccc3nc(SCc4ccc(F)cc4)n(C)c3c2)cc1 | inactive |
| Cc1ccc(-n2nc(C(=O)N3CCN(c4ccccc4)CC3)c(=O)n(C)c2=O)cc1 | inconclusive [inhibitor, partial curve, poor fit] |
| Cc1ccn2c(Nc3ccc4c(c3)OCO4)c(-c3ccc(O)cc3)nc2c1 | inconclusive [inhibitor, partial curve, poor fit] |
| Cc1cc(N2CCN(C)CC2)nc2ccc(NC(=O)Nc3ccccc3)cc12 | inactive |
| Cc1ccc(NC(=O)Nc2cc3c(cc2N2CCCCC2)n(C)c(=O)n3C)cc1Cl | inconclusive [inhibitor, partial curve, poor fit] |
| O=C(Nc1ccc2oc(-c3ccc4ccccc4c3)nc2c1)c1cc(Br)ccc1Cl | inactive |
| COc1ccc(NS(=O)(=O)c2ccc3[nH]c4c(c3c2)CCCC4)c(OC)c1 | inconclusive [inhibitor, single point] |
| CCN(C(=O)CN(C)S(=O)(=O)c1ccc2c(c1)n(C)c(=O)c(=O)n2C)c1cccc(C)c1 | inconclusive [inhibitor, single point] |
| Cc1oc(C)c2c(=O)cc(-c3ccc4c(c3)OCO4)cc(OC(=O)c3ccccc3Cl)c12 | inconclusive [inhibitor, partial curve, poor fit] |
| CCOC(=O)N1CCc2c(sc(NCc3ccc(OC)c(OC)c3OC)c2C(=O)Nc2ccc(OC)cc2OC)C1 | inactive |
| CCOC(=O)c1cc(-c2ccccc2)n(CCC(=O)Nc2ccc(Cl)c(C(F)(F)F)c2)c1C | inconclusive [inhibitor, partial curve, poor fit] |
| O=S(=O)(Nc1ccc2nc(-c3cccc(Cl)c3)oc2c1)c1ccccc1 | inconclusive [inhibitor, partial curve] |
| COc1ccc(CCNC(=O)c2c(C)nn(-c3ccc(F)cc3)c2-n2cccc2)cc1OC | inactive |
| Cc1ccc(OCCCn2c(CCNC(=O)C3CCCCC3)nc3ccccc32)c(C)c1 | inactive |
| COc1ccccc1-c1cc(C(F)(F)F)nc(S(=O)(=O)CCCC(=O)Nc2cc(OC)c(OC)c(OC)c2)n1 | inactive |
| [O-][n+]1ccccc1SSc1cccc[n+]1[O-] | inactive |
| COc1ccc(C(=O)n2c(C)c(Cc3cccc(O[C@@H](C)C(=O)O)c3)c3cc(OC(F)(F)F)ccc32)cc1 | inactive |
